From the supplement of paper PMC8728848
The other results are listed elsewhere or left out.

Columns and labels:
Assay in all cases: glycan array binding signal (z-score within array); higher = stronger binding
Settings in all cases: glycan notation: IUPAC condensed, linker removed; mutation: R343A
[1] = target: Fuc(a1-2)[GalNAc(a1-3)]Gal(b1-4)[Fuc(a1-3)]GlcNAc
In short: (§1)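 The binding signal is a Z-score computed within each array and averaged over linkers. Arrays of the same protein sequence at different concentrations or buffers were also averaged together. Data originate from 3228 arrays in the Consortium for Functional Glycomics database, kept only where the protein sequence was available.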

[2] = target: Fuc(a1-2)[GalNAc(a1-4)]Gal(b1-4)GlcNAc
In short: as §1

[3] = target: Fuc(a1-2)[GalNAc(b1-3)]Gal
In short: as §1

[4] = target: Fuc(a1-3)GlcNAc
In short: as §1

[5] = target: Fuc(a1-3)[Gal(b1-4)]Glc6S
In short: as §1

[6] = target: Fuc(a1-3)[Gal(b1-4)]GlcNAc
In short: as §1

[7] = target: Fuc(a1-3)[Gal(b1-4)]GlcNAc(b1-2)Man(a1-3)[Fuc(a1-3)[Gal(b1-4)]GlcNAc(b1-2)Man(a1-6)]Man(b1-4)GlcNAc(b1-4)GlcNAc
In short: as §1

[8] = target: Fuc(a1-3)[Gal(b1-4)]GlcNAc(b1-2)Man(a1-6)[Gal(b1-4)GlcNAc(b1-2)Man(a1-3)]Man(b1-4)GlcNAc(b1-4)GlcNAc
In short: as §1

[9] = target: Fuc(a1-3)[Gal(b1-4)]GlcNAc(b1-3)Gal(b1-3)[Fuc(a1-4)]GlcNAc
In short: as §1

[10] = target: Fuc(a1-3)[Gal(b1-4)]GlcNAc(b1-4)Gal(b1-4)[Fuc(a1-3)]GlcNAc
In short: as §1

[11] = target: Fuc(a1-3)[Gal(b1-4)]GlcNAc(b1-4)Gal(b1-4)[Fuc(a1-3)]GlcNAc(b1-4)Gal(b1-4)[Fuc(a1-3)]GlcNAc
In short: as §1

[12] = target: Fuc(a1-3)[Gal(b1-4)]GlcNAc6S
In short: as §1

[13] = target: Fuc(a1-3)[Gal3S(b1-4)]Glc6S
In short: as §1

[14] = target: Fuc(a1-3)[Gal3S(b1-4)]GlcNAc
In short: as §1

[15] = target: Fuc(a1-3)[Gal3S(b1-4)]GlcNAc6S
In short: as §1

[16] = target: Fuc(a1-3)[GalNAc(b1-4)]GlcNAc
In short: as §1

[17] = target: Fuc(a1-4)GlcNAc
In short: as §1

[18] = target: Fuc(b1-3)GlcNAc
In short: as §1

[19] = target: Gal(a1-2)Gal
In short: as §1

[20] = target: Gal(a1-3)Gal
In short: as §1

[21] = target: Gal(a1-3)Gal(b1-3)GlcNAc
In short: as §1

[22] = target: Gal(a1-3)Gal(b1-4)Glc
In short: as §1

[23] = target: Gal(a1-3)Gal(b1-4)GlcNAc
In short: as §1

[24] = target: Gal(a1-3)Gal(b1-4)[Fuc(a1-3)]GlcNAc
In short: as §1

[25] = target: Gal(a1-3)GalNAc
In short: as §1

[26] = target: Gal(a1-3)[Gal(a1-4)]Gal(b1-4)GlcNAc
In short: as §1

[27] = target: Gal(a1-4)Gal(b1-4)Glc
In short: as §1

[28] = target: Gal(a1-4)Gal(b1-4)GlcNAc
In short: as §1

[29] = target: Gal(a1-4)GlcNAc
In short: as §1

[30] = target: Gal(a1-6)Glc
In short: as §1

[31] = target: Gal(b1-2)Gal
In short: as §1

[32] = target: Gal(b1-3)Gal
In short: as §1

[33] = target: Gal(b1-3)Gal(b1-4)GlcNAc
In short: as §1

[34] = target: Gal(b1-3)GalNAc
In short: as §1

[35] = target: Gal(b1-3)GalNAc(b1-3)Gal(a1-4)Gal(b1-4)Glc
In short: as §1

[36] = target: Gal(b1-3)GalNAc(b1-4)Gal(b1-4)Glc
In short: as §1

[37] = target: Gal(b1-3)GalNAc(b1-4)[Neu5Ac(a2-3)]Gal(b1-4)Glc
In short: as §1

B1: Surfactant Protein D (Human); Neck + Carbohydrate Recognition Domain (NCRD) (Homo sapiens) (protein)
chain: MLLFLLSALVLLTQPLGYLEAEMKTYSHRTMPSACTLVMCSSVESGLPGRDRDGREGPRGEKGDPGLPGAAGQAGMPGQAGPVGPKGDNGSVGEPGPKGDTGPSGPPGPPGVPGPAGREGALGKQGNIGPQGKPGPKGEAGPKGEVGAPGMQGSAGARGLAGPKGERGVPGERGVPGNTGAAGSAGAMGPQGSPGARGPPGLKGDKGIPGDKGAKGESGLPDVASLRQQVEALQGQVQHLQAAFSQYKKVELFPNGQSVGEKIFKTAQFVKPFTEAQLLCTQAGGQLASPRSAAENAALQQLVVAKNEAAFLSMTDSKTEGKFTYPTGESLVYSNWAPGEPNDDGGSEDCVEIFTNGKWNDAACGEKRLVVCEF
glycan array binding signal (z-score) [1]: -0.132 | glycan array binding signal (z-score) [2]: -0.356 | glycan array binding signal (z-score) [3]: -0.204 | glycan array binding signal (z-score) [4]: -0.251 | glycan array binding signal (z-score) [5]: -0.066 | glycan array binding signal (z-score) [6]: -0.148 | glycan array binding signal (z-score) [7]: -0.178 | glycan array binding signal (z-score) [8]: -0.182 | glycan array binding signal (z-score) [9]: -0.26 | glycan array binding signal (z-score) [10]: -0.082 | glycan array binding signal (z-score) [11]: -0.333 | glycan array binding signal (z-score) [12]: 0.034 | glycan array binding signal (z-score) [13]: 0.22 | glycan array binding signal (z-score) [14]: 0.184 | glycan array binding signal (z-score) [15]: 0.084 | glycan array binding signal (z-score) [16]: -0.375 | glycan array binding signal (z-score) [17]: -0.016 | glycan array binding signal (z-score) [18]: -0.211 | glycan array binding signal (z-score) [19]: -0.106 | glycan array binding signal (z-score) [20]: -0.219 | glycan array binding signal (z-score) [21]: -0.065 | glycan array binding signal (z-score) [22]: -0.2 | glycan array binding signal (z-score) [23]: -0.344 | glycan array binding signal (z-score) [24]: -0.101 | glycan array binding signal (z-score) [25]: -0.163 | glycan array binding signal (z-score) [26]: -0.393 | glycan array binding signal (z-score) [27]: -0.289 | glycan array binding signal (z-score) [28]: -0.297 | glycan array binding signal (z-score) [29]: -0.359 | glycan array binding signal (z-score) [30]: -0.319 | glycan array binding signal (z-score) [31]: -0.42 | glycan array binding signal (z-score) [32]: -0.274 | glycan array binding signal (z-score) [33]: -0.215 | glycan array binding signal (z-score) [34]: -0.284 | glycan array binding signal (z-score) [35]: -0.054 | glycan array binding signal (z-score) [36]: -0.358 | glycan array binding signal (z-score) [37]: 0.035
